PubChem BioAssay AID588591 (National Center for Advancing Translational Sciences (NCATS), 2011)
The campaign covered roughly 390,000 compounds. About 4,700 (1.2%) were called active. Inconclusive results, whose numbers are uncertain, are shown with a selection of clear calls. The call rests on the fitted dose curve; in most records, active means well fitted inhibition curve with a large enough effect; inconclusive means small, poorly fitted or top-dose-only effect, or another doubt; inactive means no such curve, though single readings can be large or run the other way. A potency beside an inconclusive call is a rough fit, not a confirmed value.

These compounds were tested against DNA polymerase eta (Homo sapiens) (UniProt Q9Y253) (assay: qHTS for Inhibitors of Polymerase Eta). Conditions: recombinant Pol eta, fluorescent DNA replication assay; series mostly up to 114 µM.
Summary of the method: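 Fluorescent replication assay: 50 nM final substrate added after a 15 min room-temperature compound preincubation with 10 nM enzyme. Signal taken at 0 min and again at 10 min.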
Potency means the concentration at half of the fitted maximal effect; tags describe the fitted curve by direction and shape.

Chain of UniProt Q9Y253 (Q9Y253 whole entry, looked up): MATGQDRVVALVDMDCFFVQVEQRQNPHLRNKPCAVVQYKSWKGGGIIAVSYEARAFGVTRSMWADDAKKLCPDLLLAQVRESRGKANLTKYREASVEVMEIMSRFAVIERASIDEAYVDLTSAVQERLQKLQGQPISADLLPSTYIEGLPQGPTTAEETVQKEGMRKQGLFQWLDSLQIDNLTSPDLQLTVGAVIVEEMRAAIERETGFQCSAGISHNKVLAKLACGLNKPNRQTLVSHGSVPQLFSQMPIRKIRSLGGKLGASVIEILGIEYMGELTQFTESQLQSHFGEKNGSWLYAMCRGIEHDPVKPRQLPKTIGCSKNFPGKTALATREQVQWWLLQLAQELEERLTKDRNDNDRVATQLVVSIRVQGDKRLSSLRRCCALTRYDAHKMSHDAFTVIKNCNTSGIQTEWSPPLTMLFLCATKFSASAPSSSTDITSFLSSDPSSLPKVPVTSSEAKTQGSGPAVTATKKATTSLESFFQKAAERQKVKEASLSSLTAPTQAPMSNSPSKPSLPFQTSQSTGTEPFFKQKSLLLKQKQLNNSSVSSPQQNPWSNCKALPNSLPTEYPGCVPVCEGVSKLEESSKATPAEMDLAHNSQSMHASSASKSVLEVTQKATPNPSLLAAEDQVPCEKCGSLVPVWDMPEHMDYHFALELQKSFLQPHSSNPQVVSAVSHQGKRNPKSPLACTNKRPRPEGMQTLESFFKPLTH

| Structure (SMILES) | Potency |
| --- | --- |
| Cc1nc(N)sc1-c1csc(Nc2ncccn2)n1 | inconclusive: 89.1 µM [inhibitor, partial curve, poor fit] |
| CC(C)c1ccc(NS(=O)(=O)c2ccc3[nH]cc(C(=O)NC4CCCC4)c(=O)c3c2)cc1 | active: 31.6 µM |
| Cc1cc(C)cc(N=Cc2[nH]c3ccc(Br)c(Cl)c3c2O)c1 | inconclusive: 3.16 µM [inhibitor, full curve, poor fit] |
| CN1/C(=C\C(=O)COC(=O)c2ccco2)C(C)(C)c2ccccc21 | inactive |
| CSc1nc2sc3c(c2c(=O)n1-c1ccc(C)c(Cl)c1)CCN(C(C)=O)C3 | inconclusive: 50.1 µM [inhibitor, partial curve, poor fit] |
| CC1Cc2nc(SCC(=O)NCC3CCCO3)n(C)c(=O)c2S1 (configuration not stated) | inconclusive: 39.8 µM [inhibitor, single point] |
| CCOC(=O)c1cnn(-c2ccc(OC)cc2)c1C1CCN(C(=O)OC(C)(C)C)CC1 | inactive |
| Cc1ccc(NC(=O)CSc2ccccc2NC(=O)c2ccccc2Cl)cc1Cl | inconclusive: 20 µM [inhibitor, single point] |
| COC(=O)c1ccc(OC)c(Cn2c(=O)n(C)c(=O)c3ccccc32)c1 | inactive |
| CCN1/C(=C/c2ccc3cc(C)ccc3[n+]2CC)Sc2cc(C)c(C)cc21 | inconclusive: 31.6 µM [inhibitor, full curve] |
| CC(C)(C)c1ccc(-c2nnc(SCCN3C(=O)c4ccccc4C3=O)o2)cc1 | inconclusive: 5.01 µM [inhibitor, full curve, poor fit] |
| O=C1SCCC1NS(=O)(=O)c1ccc([N+](=O)[O-])cc1 (configuration not stated) | inconclusive: 56.2 µM [inhibitor, partial curve, poor fit] |
| O=C1OC(/C(=C\Nc2cc(Cl)ccc2O)[N+](=O)[O-])c2ccccc21 (configuration not stated) | active: 22.4 µM |
| CCc1cccc2c1NC(=O)[C@]21[C@@H]2C(=O)N(Cc3ccccc3)C(=O)[C@@H]2[C@@H]2CCCN21 | active: 22.4 µM |
| CCn1cc(C(=O)N2CCN(c3cccc(Cl)c3)CC2)c(=O)c2cc(S(=O)(=O)N3CCOCC3)ccc21 | inconclusive: 100 µM [inhibitor, partial curve, poor fit] |
| O=C(O)c1cc2n(n1)C(C(F)(F)F)CC(c1ccco1)N2 (configuration not stated) | inconclusive: 25.1 µM [inhibitor, partial curve, poor fit] |
| COc1cccc(-c2nc(CS(=O)CC(=O)NC3CC3)c(C)o2)c1 (configuration not stated) | inactive |
| CC1(C)C(=O)Nc2ccccc2N1C(=O)COC(=O)c1ccc([N+](=O)[O-])o1 | inconclusive: 79.4 µM [inhibitor, partial curve] |
| Cc1nn2c(=O)[nH]cnc2c1Cl | inconclusive: 50.1 µM [inhibitor, partial curve, poor fit] |
| O=C(COC(=O)c1cccnc1Cl)NCc1ccco1 | inconclusive: 22.4 µM [inhibitor, partial curve, poor fit] |
| COc1ccc(NC(C)=O)cc1NC(=O)CN1CCN(C2c3ccccc3-c3ccccc32)CC1 | inconclusive: 11.2 µM [inhibitor, full curve, poor fit] |

| Structure (SMILES) | Potency |
| --- | --- |
| Cc1cc(C)n(CCc2nc(-c3ccco3)cs2)n1 | active: 79.4 µM |
| Cc1ccc(CNC(=O)COC(=O)CCC(=O)c2cccs2)cc1 | inconclusive: 89.1 µM [inhibitor, partial curve, poor fit] |
| O=C(COC(=O)c1ccccc1NC(=O)c1ccco1)Nc1ncc(Cl)cc1Cl | inconclusive: 22.4 µM [inhibitor, single point] |
| Cc1ccc(C)c(NC(=O)CSc2nc(=O)n(CCN3CCOCC3)c3c2CCCC3)c1 | inconclusive: 44.7 µM [inhibitor, partial curve, poor fit] |
| Cn1cc(CC(=O)Nc2cccc(C#N)c2)c2ccccc21 | inconclusive: 70.8 µM [inhibitor, partial curve, poor fit] |
| Cc1ccc(/C=N/Nc2ccc(Cl)c(C(=O)O)c2)s1 | inconclusive: 28.2 µM [inhibitor, single point] |
| CSc1ccc(/C=C2/C(=N)N3N=C(CC(=O)N4CCCC4)SC3=NC2=O)cc1 | active: 39.8 µM |
| Cc1cccc(NC(=O)NNC(=O)COc2ccc3ccccc3c2)c1 | inactive |
| Cc1ccc(Cl)cc1NC(=O)Nc1cn(CC(C)C)c(=O)c2ccccc12 | active: 22.4 µM |
| COc1ccc(C(=O)N2C(=S)NC(=O)/C2=C\c2ccc(C)cc2)cc1 | inconclusive: 14.1 µM [inhibitor, full curve, poor fit] |
| CCOc1ccc(S(=O)(=O)Nc2ccc3c(c2)OCO3)c2cccnc12 | inconclusive: 22.4 µM [inhibitor, single point] |
| COC(=O)c1ccccc1NC(=O)c1oc2ccc3c(c2c1C)C(=O)CC(C)(C)O3 | inactive |
| O=C(NCc1nc2ccccc2n1Cc1ccccc1Cl)c1ccccc1 | inactive |
| Oc1ccc(/C=N/NC(=S)Nc2cccnc2)c(O)c1O | inconclusive: 0.708 µM [inhibitor, full curve, poor fit] |
| Cn1c(=O)c2c(nc(CN3CCc4ccccc4C3)n2Cc2ccc(F)cc2)n(C)c1=O | inconclusive: 28.2 µM [inhibitor, partial curve, poor fit] |
| Cc1cccn2c(=O)c3cc(C(=O)NCCc4ccccc4)sc3nc12 | inconclusive: 44.7 µM [inhibitor, partial curve, poor fit] |
| COc1ccc(NC(=O)Nc2cc(C)cc(C)c2)cn1 | inactive |
| O=C(O)CN1C(=O)c2ccc(Oc3cccc4c3C(=O)N(CC(=O)O)C4=O)cc2C1=O | active: 79.4 µM |
| COC(=O)c1sc2nc(N)c(C#N)cc2c1N | inconclusive: 14.1 µM [inhibitor, partial curve, poor fit] |
| COC(=O)C1C(=O)C2=C(CC1C)NC(C)=C(C(=O)OC1CCCCC1)C2c1ccc(N(C)C)cc1 (configuration not stated) | inconclusive: 35.5 µM [inhibitor, partial curve, poor fit] |
| Cc1nc(-c2cccc(NC(=O)c3cc4cc(Br)ccc4oc3=O)c2)cs1 | inconclusive: 15.8 µM [inhibitor, partial curve, poor fit] |
